The subject of the experiment is NCI-H322M lung. Briefly: NCI tumour cell line growth inhibition, 48 h.

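Each compound was tested at five concentrations against cells in 96-well plates for 48 hours. Definition used: TGI = concentration required for complete inhibition of growth.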

Compound `CCn1c(=O)c2cn[nH]c2n(C)c1=O` returned a TGI above 100 µM.
The compound `Cc1cc(N(CCC#N)CCC#N)ccc1/C=N/NC(=O)c1ccccc1` came in with a TGI above 100 µM.
Under `CCC(N)(C(=O)O)C(C)C` (stereo not given) stands above 100 µM; under `CC12CCC([C@H](Nc3cc(C(F)(F)F)cc(C(F)(F)F)c3)C1=O)C2(C)C` (stereo not given in full), above 100 µM.
Then `COc1ccc(/C=C2\CCC(CN3CCOCC3)C2=O)cc1` (stereo not given), with 30.9 µM; and `COC(=O)C1=C(C=O)C2C=CC1C2` (stereo not given), with above 100 µM; and `Fc1cccc(C2SCC3=Nc4ccccc4CN32)c1` (stereo not given), with above 100 µM.
Under `Cc1cnc(-c2ccccc2)o1` stands above 100 µM.
Consider `CCOC(=O)[C@H]1Nc2ccc(Cl)cc2[C@H]2CCC[C@@H]12`, for which the TGI is above 100 µM.
The compound `O=C(NC(=S)Nc1ccc2c(c1)Sc1ccccc1O2)c1ccccc1` came in with a TGI above 100 µM.
